Data: patent US20210393530A1 (Regeneron, published 2021)

How the values were obtained:
human VEGF [1] = biological target: T1, human VEGF (human, UniProt P15692-4 27-191, limits assumed); assay: ELISA of free VEGF in equilibrated mixtures of VEGF and varied VEGF trap; 25 mg/ml liquid formulation stored at 5° C., 6 months
T1 construct: The bioassay uses 'human VEGF'; also called VEGF165; vascular endothelial growth factor
T1 sequence (looked up): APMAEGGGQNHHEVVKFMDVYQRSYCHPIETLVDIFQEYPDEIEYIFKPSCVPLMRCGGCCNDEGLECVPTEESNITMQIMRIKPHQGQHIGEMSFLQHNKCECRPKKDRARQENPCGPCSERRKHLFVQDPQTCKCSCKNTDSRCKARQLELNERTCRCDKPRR
Description: (§1) The stability of a reconstituted lyophilized formulation was determined over a 6 month period. The pre-lyophilized formulation contained 10 mM histidine, 1.5% PEG 3350, 2.5% sucrose, 0.75% glycine and 50 mg/ml VEGF trap protein. After lyophilization, the reconstituted formulation contained 20 mM histidine, 3% PEG 3350, 5% sucrose, 1.5% glycine, and 100 mg/ml VEGF trap protein (SEQ ID NO:4). Activity was determined in a cell based bioassay which directly measures the ability of the VEGF trap to inhibit the biological effects of human VEGF on a mouse Baf/3 VEGFR1/EpoR cell line. Therefore, this bioassay directly measures the biological activity of the protein. The results are expressed as percent relative potency (test sample IC₅₀/reference VEGF IC₅₀ standard×100). The binding affinity of VEGF to the VEGF trap is measured using a sensitive ELISA that specifically measures free VEGF in equilibrated mixtures containing VEGF and various concentrations of the VEGF trap. Results are expressed as percent relative binding (IC₅₀ of test sample/IC₅₀ of reference×100). Measured pH ranged between 6.3-6.5. All solutions were visually clear. The concentration of VEGF trap recovered was determined with a UV spectrophotometer as mg/ml at A₂₈₀ nm. The percent VEGF trap recovered in the native configuration (main peak purity) was determined with SE-HPLC. […]

human VEGF [2] = biological target: T1, human VEGF; assay: ELISA of free VEGF in equilibrated mixtures of VEGF and varied VEGF trap; 25 mg/ml liquid formulation stored at 5° C., 0 months
Description: as §1

human VEGF [3] = biological target: T1, human VEGF; assay: cell-based or functional assay
human VEGF [4] = biological target: T1, human VEGF; assay: ELISA of free VEGF in equilibrated mixtures of VEGF and varied VEGF trap; 25 mg/ml liquid formulation stored at 5° C., 36 months
Description: as §1

human VEGF [5] = biological target: T1, human VEGF; assay: ELISA of free VEGF in equilibrated mixtures of VEGF and varied VEGF trap; reconstituted lyophilized formulation stored at 5° C., 1 + 24 hr
Description: (§2) The stability of a reconstituted lyophilized formulation was determined over a 6 month period. The pre-lyophilized formulation contained 10 mM histidine, 1.5% PEG 3350, 2.5% sucrose, 0.75% glycine and 50 mg/ml VEGF trap protein. After lyophilization, the reconstituted formulation contained 20 mM histidine, 3% PEG 3350, 5% sucrose, 1.5% glycine, and 100 mg/ml VEGF trap protein (SEQ ID NO:4). Activity was determined in a cell based bioassay which directly measures the ability of the VEGF trap to inhibit the biological effects of human VEGF on a mouse Baf/3 VEGFR1/EpoR cell line. Therefore, this bioassay directly measures the biological activity of the protein. The results are expressed as percent relative potency (test sample IC₅₀/reference VEGF IC₅₀ standard×100). The binding affinity of VEGF to the VEGF trap is measured using a sensitive ELISA that specifically measures free VEGF in equilibrated mixtures containing VEGF and various concentrations of the VEGF trap. Results are expressed as percent relative binding (IC₅₀ of test sample/IC₅₀ of reference×100). Measured pH ranged between 6.3-6.5. All solutions were visually clear. The concentration of VEGF trap recovered was determined with a UV spectrophotometer as mg/ml at A₂₈₀ nm. The percent VEGF trap recovered in the native configuration (main peak purity) was determined with SE-HPLC.

human VEGF [6] = biological target: T1, human VEGF; assay: ELISA of free VEGF in equilibrated mixtures of VEGF and varied VEGF trap; reconstituted lyophilized formulation stored at 5° C., 1 + 4 hr
Description: as §2

human VEGF [7] = biological target: T1, human VEGF; assay: ELISA of free VEGF in equilibrated mixtures of VEGF and varied VEGF trap; 25 mg/ml liquid formulation stored at 5° C., 24 months
Description: as §1

human VEGF [8] = biological target: T1, human VEGF; assay: ELISA of free VEGF in equilibrated mixtures of VEGF and varied VEGF trap; reconstituted lyophilized formulation stored at 5° C., 3 + 24 hr
Description: as §2

human VEGF [9] = biological target: T1, human VEGF; assay: ELISA of free VEGF in equilibrated mixtures of VEGF and varied VEGF trap; reconstituted lyophilized formulation stored at 5° C., 1 month
Description: as §2

human VEGF [10] = biological target: T1, human VEGF; assay: ELISA of free VEGF in equilibrated mixtures of VEGF and varied VEGF trap; 25 mg/ml liquid formulation stored at 5° C., 18 months
Description: as §1

human VEGF [11] = biological target: T1, human VEGF; assay: ELISA of free VEGF in equilibrated mixtures of VEGF and varied VEGF trap; 25 mg/ml liquid formulation stored at 5° C., 12 months
Description: as §1

human VEGF [12] = biological target: T1, human VEGF; assay: ELISA of free VEGF in equilibrated mixtures of VEGF and varied VEGF trap; 25 mg/ml liquid formulation stored at 5° C., 9 months
Description: as §1

human VEGF [13] = biological target: T1, human VEGF; assay: ELISA of free VEGF in equilibrated mixtures of VEGF and varied VEGF trap; 25 mg/ml liquid formulation stored at 5° C., 3 months
Description: as §1

human VEGF [14] = biological target: T1, human VEGF; assay: ELISA of free VEGF in equilibrated mixtures of VEGF and varied VEGF trap; reconstituted lyophilized formulation stored at 5° C., 3 months
Description: as §2

human VEGF [15] = biological target: T1, human VEGF; assay: ELISA of free VEGF in equilibrated mixtures of VEGF and varied VEGF trap; reconstituted lyophilized formulation stored at 5° C., 0 months
Description: as §2

- percent relative binding (IC50 of test sample/IC50 of reference×100) (human VEGF [1]): 106%
- percent relative binding (IC50 of test sample/IC50 of reference×100) (human VEGF [2]): 72%
- Bioassay: percent relative potency (test sample IC50/reference VEGF IC50 standard×100), 0 months, reconstituted lyophilized formulation (human VEGF [3]): 120%
- Bioassay: percent relative potency (test sample IC50/reference VEGF IC50 standard×100), 1 + 4 hr, reconstituted lyophilized formulation (human VEGF [3]): 94%
- Bioassay: percent relative potency (test sample IC50/reference VEGF IC50 standard×100), 1 + 24 hr, reconstituted lyophilized formulation (human VEGF [3]): 126%
- Bioassay: percent relative potency (test sample IC50/reference VEGF IC50 standard×100), 1 month, reconstituted lyophilized formulation (human VEGF [3]): 117%
- Bioassay: percent relative potency (test sample IC50/reference VEGF IC50 standard×100), 3 + 24 hr, reconstituted lyophilized formulation (human VEGF [3]): 65%
- Bioassay: percent relative potency (test sample IC50/reference VEGF IC50 standard×100), 3 months, reconstituted lyophilized formulation (human VEGF [3]): 101%
- percent relative binding (IC50 of test sample/IC50 of reference×100) (human VEGF [4]): 79%
- percent relative binding (IC50 of test sample/IC50 of reference×100) (human VEGF [5]): 72%
- percent relative binding (IC50 of test sample/IC50 of reference×100) (human VEGF [6]): 81%
- percent relative binding (IC50 of test sample/IC50 of reference×100) (human VEGF [7]): 95%
- percent relative binding (IC50 of test sample/IC50 of reference×100) (human VEGF [8]): 94%
- percent relative binding (IC50 of test sample/IC50 of reference×100) (human VEGF [9]): 74%
- percent relative binding (IC50 of test sample/IC50 of reference×100) (human VEGF [10]): 81%
- percent relative binding (IC50 of test sample/IC50 of reference×100) (human VEGF [11]): 95%
- percent relative binding (IC50 of test sample/IC50 of reference×100) (human VEGF [12]): 126%
- percent relative binding (IC50 of test sample/IC50 of reference×100) (human VEGF [13]): 88%
- percent relative binding (IC50 of test sample/IC50 of reference×100) (human VEGF [14]): 98%
- percent relative binding (IC50 of test sample/IC50 of reference×100) (human VEGF [15]): 126%
B1: VEGF trap (SEQ ID NO:4) (Fc fusion)
chain: SDTGRPFVEMYSEIPEIIHMTEGRELVIPCRVTSPNITVTLKKFPLDTLIPDGKRIIWDSRKGFIISNATYKEIGLLTCEATVNGHLYKTNYLTHRQTNTIIDVVLSPSHGIELSVGEKLVLNCTARTELNVGIDFNWEYPSSKHQHKKLVNRDLKTQSGSEMKKFLSTLTIDGVTRSDQGLYTCAASSGLMTKKNSTFVRVHEK[in this place human IgG1 Fc]
modifications: glycosylated at Asn residues 62, 94, 149, 222 and 308 (told as a specific embodiment)
notes: also called VEGF trap protein; VEGF-specific fusion protein antagonist
